Measurements published in the supplement of paper PMC4967469.
IC50 is the fitted dose that halves viability relative to control wells, and lower means more sensitive; where the fit passes the top or lowest dose, that dose stands as a limit. For AUC the same curve is integrated over the 256-fold range of doses and scaled to a fraction; it is 1 without any effect and falls as sensitivity rises. For part of these data: Where the top dose is marked as inferred, it comes from the curve model; the source does not state it.

Key:
Experiment in all cases: Viability of human cancer cell lines after 72 h of drug (GDSC screen)
PIK-93 = compound: CC(=O)Nc1nc(C)c(-c2ccc(Cl)c(S(=O)(=O)NCCO)c2)s1 [PIK-93]; conditions: top dose 20 µM
Method: (§1)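 Human cancer cell lines in 384-well plates, medium with 10% serum, drug for 72 h over a 256-fold dose range (nine 2-fold or five 4-fold steps up to the top dose). Adherent lines were fixed and stained with the nucleic acid dye Syto60, suspension lines read with resazurin; signal relative to control wells, capped at 0 and 100%. One two-parameter sigmoid per drug and line, fitted in a mixed model over all curves with the slope shared within a line.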

GW 441756 = compound: Cn1cc(/C=C2\C(=O)Nc3cccnc32)c2ccccc21 [GW 441756]; conditions: top dose 2 µM; top dose inferred
Method: as §1

piperlongumine = compound: COc1cc(/C=C/C(=O)N2CCC=CC2=O)cc(OC)c1OC [piperlongumine]; conditions: top dose 10 µM
Method: as §1

| Cell Line | AUC (PIK-93) | IC50 (PIK-93) [µM] | AUC (GW 441756) | IC50 (GW 441756) [µM] | AUC (piperlongumine) | IC50 (piperlongumine) [µM] |
| --- | --- | --- | --- | --- | --- | --- |
| ACHN (kidney, adherent) | 0.877 | > 20 | 0.959 | > 2 | 0.771 | 4.38 |
| UMC-11 (lung carcinoid, adherent) | 0.936 | > 20 | 0.982 | > 2 | 0.912 | > 10 |
| NCI-H1573 (lung adenocarcinoma, adherent) | 0.963 | > 20 |  |  | 0.981 | > 10 |
| SW156 (kidney, adherent) | 0.841 | 16.2 |  |  | 0.848 | 8.67 |
| SW1088 (glioma, adherent) | 0.903 | > 20 |  |  | 0.844 | > 10 |
| NCI-H2029 (small cell lung carcinoma, adherent) | 0.947 | > 20 | 0.975 | > 2 | 0.861 | 7.16 |
| U-2-OS (osteosarcoma, adherent) | 0.976 | > 20 | 0.98 | > 2 | 0.728 | 2.98 |
| G-MEL (melanoma, adherent) | 0.87 | 18.2 | 0.867 | 1.76 | 0.663 | 1.76 |
| COR-L303 (small cell lung carcinoma, suspension) | 0.742 | 5.98 |  |  |  |  |
| VMRC-MELG (melanoma, adherent) | 0.937 | > 20 | 0.943 | > 2 | 0.937 | > 10 |
| HO-1-N-1 (head and neck, adherent) | 0.893 | > 20 |  |  | 0.734 | 2.72 |
| ABC-1 (lung adenocarcinoma, adherent) | 0.852 | > 20 | 0.818 | 1.44 | 0.669 | 2.04 |
| WM278 (melanoma, adherent) | 0.756 | 7.63 | 0.98 | > 2 | 0.768 | 4.2 |
| SCC-4 (head and neck, adherent) | 0.879 | > 20 | 0.968 | > 2 | 0.863 | > 10 |
| EPLC-272H (lung squamous cell carcinoma, adherent) | 0.721 | 5.8 | 0.956 | > 2 | 0.777 | 4.54 |
| NCI-H196 (small cell lung carcinoma, adherent) | 0.926 | > 20 |  |  | 0.942 | > 10 |
| RMG-I (ovary, adherent) | 0.844 | 18.1 | 0.929 | > 2 | 0.683 | 2.23 |
| KYSE-180 (oesophagus, adherent) | 0.827 | 11.5 |  |  | 0.87 | 8.61 |
| PANC-08-13 (pancreas, adherent) | 0.721 | 6.42 |  |  | 0.799 | 6.41 |
| SW1990 (pancreas, adherent) | 0.97 | > 20 | 0.959 | > 2 | 0.747 | 3.67 |
| SW1116 (large intestine, adherent) | 0.98 | > 20 |  |  | 0.837 | > 10 |
| HSC-3 (head and neck, adherent) | 0.973 | > 20 |  |  | 0.635 | 1.39 |

| Cell Line | AUC (PIK-93) | IC50 (PIK-93) [µM] | AUC (GW 441756) | IC50 (GW 441756) [µM] | AUC (piperlongumine) | IC50 (piperlongumine) [µM] |
| --- | --- | --- | --- | --- | --- | --- |
| NCI-H2122 (lung adenocarcinoma, adherent) | 0.945 | > 20 | 0.875 | 1.75 | 0.793 | 4.24 |
| MCF7 (breast, adherent) | 0.986 | > 20 | 0.935 | > 2 | 0.782 | 4.35 |
| IM-95 (stomach, adherent) | 0.707 | 5 |  |  | 0.977 | > 10 |
| BICR31 (head and neck, adherent) | 0.923 | > 20 |  |  |  |  |
| HPAC (pancreas, adherent) | 0.831 | > 20 |  |  | 0.971 | > 10 |
| H2804 (mesothelioma, adherent) | 0.94 | > 20 |  |  | 0.826 | 6.84 |
| HCC38 (breast, adherent) | 0.834 | 14.5 | 0.984 | > 2 | 0.865 | > 10 |
| KP-4 (pancreas, adherent) | 0.963 | > 20 |  |  | 0.725 | 2.63 |
| KYSE-270 (oesophagus, adherent) | 0.73 | 5.01 |  |  | 0.783 | 3.58 |
| NCI-H1793 (lung adenocarcinoma, adherent) | 0.927 | > 20 |  |  | 0.88 | > 10 |
| H2722 (mesothelioma, adherent) | 0.9 | > 20 | 0.76 | 0.83 | 0.791 | 5.46 |
| EFM-19 (breast, adherent) | 0.674 | 4.92 | 0.916 | > 2 | 0.777 | 6.38 |
| H2803 (mesothelioma, adherent) | 0.948 | > 20 |  |  | 0.816 | 6.72 |
| COR-L105 (lung adenocarcinoma, adherent) | 0.645 | 3.46 |  |  | 0.728 | 3.27 |
| COR-L311 (small cell lung carcinoma, suspension) | 0.554 | 1.77 |  |  |  |  |
| NCI-H292 (lung adenocarcinoma, adherent) | 0.484 | 1.12 | 0.92 | > 2 | 0.648 | 1.77 |
| U251 (glioma, adherent) | 0.84 | 12.8 | 0.981 | > 2 | 0.698 | 2.19 |
| LN-229 (glioma, adherent) | 0.972 | > 20 | 0.988 | > 2 | 0.652 | 1.64 |
| DMS-53 (small cell lung carcinoma, adherent) | 0.988 | > 20 | 0.9 | > 2 | 0.867 | > 10 |
| YMB-1-E (breast, adherent) | 0.816 | 16.7 |  |  |  |  |
| SNU-175 (large intestine, suspension) | 0.807 | 9.5 |  |  |  |  |
| JHH-6 (liver, adherent) | 0.891 | > 20 | 0.98 | > 2 | 0.761 | 3.59 |

| Cell Line | AUC (PIK-93) | IC50 (PIK-93) [µM] | AUC (GW 441756) | IC50 (GW 441756) [µM] | AUC (piperlongumine) | IC50 (piperlongumine) [µM] |
| --- | --- | --- | --- | --- | --- | --- |
| RT-112 (bladder, adherent) | 0.775 | 8.52 |  |  | 0.787 | 4.71 |
| RD (rhabdomyosarcoma, adherent) | 0.803 | 11 |  |  | 0.644 | 1.63 |
| SW837 (large intestine, adherent) | 0.902 | > 20 |  |  | 0.838 | > 10 |
| PL18 (pancreas, adherent) | 0.933 | > 20 |  |  | 0.464 | 0.498 |
| M14 (melanoma, adherent) | 0.768 | 7.89 | 0.987 | > 2 | 0.809 | 5.56 |
| SNU-475 (liver, adherent) | 0.822 | 9.92 |  |  |  |  |
| PA-TU-8988T (pancreas, adherent) | 0.897 | > 20 | 0.968 | > 2 | 0.727 | 2.77 |
| AN3-CA (endometrium, adherent) | 0.792 | 9.99 | 0.974 | > 2 | 0.659 | 1.8 |
| A204 (rhabdomyosarcoma, adherent) | 0.746 | 7.95 |  |  | 0.639 | 1.7 |
| CAMA-1 (breast, adherent) | 0.84 | 19.1 |  |  | 0.792 | 5.86 |
| SW1463 (large intestine, adherent) | 0.978 | > 20 |  |  | 0.956 | > 10 |
| A549 (lung adenocarcinoma, adherent) |  |  | 0.903 | > 2 |  |  |
| NCI-H1650 (lung adenocarcinoma, adherent) |  |  |  |  | 0.765 | 4.81 |
| A2058 (melanoma, adherent) | 0.978 | > 20 | 0.987 | > 2 | 0.692 | 2.02 |
| ML-1 (thyroid, adherent) | 0.839 | 17.1 |  |  | 0.82 | 7.05 |
| LU-99A (large cell lung carcinoma, adherent) | 0.865 | 17.4 |  |  | 0.74 | 3.01 |
| SN12C (kidney, adherent) | 0.97 | > 20 |  |  | 0.773 | 4.39 |
| GP5d (large intestine, adherent) | 0.809 | 9.09 |  |  | 0.871 | 7.74 |
| HCC70 (breast, adherent) | 0.753 | 6.6 | 0.986 | > 2 | 0.772 | 3.8 |
| H2810 (mesothelioma, adherent) |  |  |  |  | 0.9 | > 10 |
| NCI-H2170 (lung squamous cell carcinoma, adherent) | 0.936 | > 20 |  |  | 0.914 | > 10 |
| J82 (bladder, adherent) | 0.968 | > 20 |  |  | 0.758 | 3.45 |

| Cell Line | AUC (PIK-93) | IC50 (PIK-93) [µM] | AUC (GW 441756) | IC50 (GW 441756) [µM] | AUC (piperlongumine) | IC50 (piperlongumine) [µM] |
| --- | --- | --- | --- | --- | --- | --- |
| HTC-C3 (thyroid, adherent) | 0.77 | 8.54 |  |  | 0.782 | 4.73 |
| Hs940-T (melanoma, adherent) | 0.984 | > 20 |  |  | 0.796 | 5.84 |
| NCI-H146 (small cell lung carcinoma, suspension) |  |  | 0.995 | > 2 | 0.898 | 7.95 |
| HPAF-II (pancreas, adherent) | 0.82 | 16.3 |  |  | 0.738 | 3.77 |
| GCT (soft tissue, adherent) | 0.981 | > 20 |  |  | 0.599 | 1.15 |
| SNU-398 (liver, adherent) | 0.678 | 4.01 |  |  | 0.748 | 3.32 |
| COR-L32 (small cell lung carcinoma, suspension) |  |  |  |  | 0.8 | > 10 |
| NCI-H1915 (large cell lung carcinoma, adherent) | 0.886 | > 20 |  |  | 0.809 | 5.35 |
| BFTC-909 (kidney, adherent) | 0.965 | > 20 |  |  | 0.658 | 1.7 |
| VMRC-RCW (kidney, adherent) | 0.939 | > 20 | 0.98 | > 2 |  |  |
| T-24 (bladder, adherent) | 0.897 | > 20 |  |  | 0.716 | 2.47 |
| H2818 (mesothelioma, adherent) | 0.97 | > 20 |  |  | 0.816 | 5.75 |
| BEN (non-small cell lung carcinoma, adherent) | 0.915 | > 20 |  |  | 0.929 | > 10 |
| SNU-1040 (large intestine, adherent) | 0.835 | > 20 |  |  | 0.817 | 8.19 |
| NCI-H1299 (large cell lung carcinoma, adherent) | 0.879 | > 20 |  |  | 0.774 | 4.85 |
| KOSC-2 (head and neck, adherent) | 0.871 | > 20 |  |  | 0.717 | 2.65 |
| NCI-H2228 (lung adenocarcinoma, adherent) | 0.841 | > 20 |  |  | 0.839 | > 10 |
| PCI-38 (head and neck, adherent) | 0.858 | 16.5 |  |  | 0.788 | 4.42 |
| 769-P (kidney, adherent) | 0.87 | > 20 |  |  | 0.685 | 2.17 |
| Caov-3 (ovary, adherent) | 0.757 | 6.14 |  |  |  |  |
| NCI-H1734 (lung adenocarcinoma, adherent) | 0.887 | > 20 | 0.896 | > 2 |  |  |
| COLO-792 (melanoma, adherent) | 0.904 | > 20 |  |  | 0.778 | 3.99 |
